The supplement of paper PMC4604168 (melanoma cell lines)
Some of the results follow. Single values are uncertain, as repeats are few or missing.

Tests used:
Experiment in all cases: cell count relative to DMSO control; melanoma cells; higher = more viable cells
WM115 = details: library dose: low library concentration; 72 h
WM1716 = details: library dose: low library concentration; 72 h
WM1745 = details: library dose: low library concentration; 72 h
WM3526 = details: library dose: low library concentration; 72 h
WM3619 = details: library dose: low library concentration; 72 h
WM451Lu = details: library dose: low library concentration; 72 h
501Mel = details: library dose: standard library concentration; 72 h
A101D = details: library dose: standard library concentration; 72 h
A2058 = details: library dose: standard library concentration; 72 h
A375 = details: library dose: standard library concentration; 72 h

SMILES: C[As](C)SC[C@H](NC(=O)CC[C@H](N)C(=O)O)C(=O)NCC(=O)O [Darinaparsin] + NC(=O)Nc1cc(-c2cccc(F)c2)sc1C(=O)N[C@H]1CCCNC1 [AZD7762] (first compound 0.4 µM, partner dose 0.02 µM)
- cell count (WM115): 89.4%
- cell count (WM1716): 105%
- cell count (WM1745): 95.8%
- cell count (WM3526): 92%
- cell count (WM3619): 89.2%
- cell count (WM451Lu): 102%

SMILES: C[C@]12O[C@H](C[C@]1(O)CO)n1c3ccccc3c3c4c(c5c6ccccc6n2c5c31)CNC4=O [Lestaurtinib] + C[C@]1(O)C[C@@H](c2nc(-c3ccc4ccc(-c5ccccc5)nc4c3)c3c(N)nccn32)C1 [OSI906] (first compound 0.004 µM, partner dose 0.4 µM)
- cell count (WM115): 101%
- cell count (WM1716): 99.8%
- cell count (WM1745): 64.8%
- cell count (WM3526): 62.9%
- cell count (WM3619): 111%
- cell count (WM451Lu): 98.2%

SMILES: N.N.[Cl][Pt][Cl] [cisplatin] + Nc1nc(F)nc2c1ncn2[C@@H]1O[C@H](CO)[C@@H](O)[C@@H]1O [fludarabine] (first compound 1.6 µM, partner dose 0.2 µM)
- cell count (WM115): 65%
- cell count (WM1716): 86.3%
- cell count (WM1745): 110%
- cell count (WM3526): 27.6%
- cell count (WM3619): 105%
- cell count (WM451Lu): 53.3%

SMILES: C[C@]12O[C@H](C[C@]1(O)CO)n1c3ccccc3c3c4c(c5c6ccccc6n2c5c31)CNC4=O [Lestaurtinib] + COc1cc(N2CCC(N3CCN(C)CC3)CC2)ccc1Nc1ncc(Cl)c(Nc2ccccc2S(=O)(=O)C(C)C)n1 [NVP-TAE684] (first compound 0.004 µM, partner dose 0.08 µM)
- cell count (WM115): 89.6%
- cell count (WM1716): 94.5%
- cell count (WM1745): 84.9%
- cell count (WM3526): 73.1%
- cell count (WM3619): 75.6%
- cell count (WM451Lu): 107%

SMILES: C[As](C)SC[C@H](NC(=O)CC[C@H](N)C(=O)O)C(=O)NCC(=O)O [Darinaparsin] + Nc1cccc2c1CN(C1CCC(=O)NC1=O)C2=O [lenalidomide] (first compound 0.4 µM, partner dose 1 µM)
- cell count (WM115): 89.5%
- cell count (WM1716): 110%
- cell count (WM1745): 95.7%
- cell count (WM3526): 102%
- cell count (WM3619): 105%
- cell count (WM451Lu): 113%

SMILES: C[As](C)SC[C@H](NC(=O)CC[C@H](N)C(=O)O)C(=O)NCC(=O)O [Darinaparsin] + Cn1nnc2c(C(N)=O)ncn2c1=O [temozolomide] (first compound 0.4 µM, partner dose 2 µM)
- cell count (WM115): 105%
- cell count (WM1716): 92.7%
- cell count (WM1745): 122%
- cell count (WM3526): 92.5%
- cell count (WM3619): 93.1%
- cell count (WM451Lu): 89.6%

SMILES: C[C@]12O[C@H](C[C@]1(O)CO)n1c3ccccc3c3c4c(c5c6ccccc6n2c5c31)CNC4=O [Lestaurtinib] + Cn1nnc2c(C(N)=O)ncn2c1=O [temozolomide] (first compound 0.004 µM, partner dose 2 µM)
- cell count (WM115): 95%
- cell count (WM1716): 100%
- cell count (WM1745): 87.8%
- cell count (WM3526): 88.1%
- cell count (WM3619): 97.8%
- cell count (WM451Lu): 102%

SMILES: N.N.[Cl][Pt][Cl] [cisplatin] + C[As](C)SC[C@H](NC(=O)CC[C@H](N)C(=O)O)C(=O)NCC(=O)O [Darinaparsin] (first compound 1.6 µM, partner dose 0.4 µM)
- cell count (WM115): 107%
- cell count (WM1716): 98%
- cell count (WM1745): 98.8%
- cell count (WM3526): 96.3%
- cell count (WM3619): 121%
- cell count (WM451Lu): 107%

SMILES: Cn1cc(C2=C(c3cn(C4CCN(Cc5ccccn5)CC4)c4ccccc34)C(=O)NC2=O)c2ccccc21 [Enzastaurin] + Clc1ccc(Nc2nnc(Cc3ccncc3)c3ccccc23)cc1 [vatalanib] (first compound 0.8 µM, partner dose 2 µM)
- cell count (WM115): 114%
- cell count (WM1716): 92.9%
- cell count (WM1745): 105%
- cell count (WM3526): 105%
- cell count (WM3619): 103%
- cell count (WM451Lu): 65.4%

SMILES: N.N.[Cl][Pt][Cl] [cisplatin] + COc1ccc(Cl)c(Nc2nc3ccccc3nc2NS(=O)(=O)c2cccc(NC(=O)C(C)(C)N)c2)c1 [XL147] (first compound 1.6 µM, partner dose 0.8 µM)
- cell count (WM115): 96.2%
- cell count (WM1716): 101%
- cell count (WM1745): 106%
- cell count (WM3526): 116%
- cell count (WM3619): 118%
- cell count (WM451Lu): 106%

SMILES: C[C@]12O[C@H](C[C@]1(O)CO)n1c3ccccc3c3c4c(c5c6ccccc6n2c5c31)CNC4=O [Lestaurtinib] + CO[C@@H]1[C@H](N(C)C(=O)c2ccccc2)C[C@H]2O[C@]1(C)n1c3ccccc3c3c4c(c5c6ccccc6n2c5c31)C(=O)NC4 [Midostaurin] (first compound 0.004 µM, partner dose 0.08 µM)
- cell count (WM115): 88.8%
- cell count (WM1716): 94.3%
- cell count (WM1745): 93.2%
- cell count (WM3526): 87.6%
- cell count (WM3619): 86.9%
- cell count (WM451Lu): 86.4%

SMILES: C[C@]12O[C@H](C[C@]1(O)CO)n1c3ccccc3c3c4c(c5c6ccccc6n2c5c31)CNC4=O [Lestaurtinib] + CCN(CC)CCNC(=O)c1c(C)[nH]c(/C=C2\C(=O)Nc3ccc(F)cc32)c1C [sunitinib] (first compound 0.004 µM, partner dose 0.4 µM)
- cell count (WM115): 89.6%
- cell count (WM1716): 136%
- cell count (WM1745): 86.8%
- cell count (WM3526): 81.2%
- cell count (WM3619): 97%
- cell count (WM451Lu): 97.4%

SMILES: C[C@]12O[C@H](C[C@]1(O)CO)n1c3ccccc3c3c4c(c5c6ccccc6n2c5c31)CNC4=O [Lestaurtinib] + CN(c1ncccc1CNc1nc(Nc2ccc3c(c2)CC(=O)N3)ncc1C(F)(F)F)S(C)(=O)=O [PF562271] (first compound 0.004 µM, partner dose 0.08 µM)
- cell count (WM115): 80.9%
- cell count (WM1716): 95.2%
- cell count (WM1745): 94.7%
- cell count (WM3526): 86.2%
- cell count (WM3619): 88.7%
- cell count (WM451Lu): 84.5%

SMILES: Cn1cc(C2=C(c3cn(C4CCN(Cc5ccccn5)CC4)c4ccccc34)C(=O)NC2=O)c2ccccc21 [Enzastaurin] + Cn1c(=O)n(-c2ccc(C(C)(C)C#N)cc2)c2c3cc(-c4cnc5ccccc5c4)ccc3ncc21 [NVP-BEZ235] (first compound 0.8 µM, partner dose 0.004 µM)
- cell count (WM115): 123%
- cell count (WM1716): 129%
- cell count (WM1745): 107%
- cell count (WM3526): 118%
- cell count (WM3619): 99.9%
- cell count (WM451Lu): 156%

SMILES: N.N.[Cl][Pt][Cl] [cisplatin] + CCCS(=O)(=O)Nc1ccc(F)c(C(=O)c2c[nH]c3ncc(Cl)cc23)c1F [PLX4720] (first compound 1.6 µM, partner dose 0.08 µM)
- cell count (WM115): 99.4%
- cell count (WM1716): 110%
- cell count (WM1745): 106%
- cell count (WM3526): 82.1%
- cell count (WM3619): 94.2%
- cell count (WM451Lu): 109%

SMILES: C[C@]12O[C@H](C[C@]1(O)CO)n1c3ccccc3c3c4c(c5c6ccccc6n2c5c31)CNC4=O [Lestaurtinib] + Cc1nc(Nc2ncc(C(=O)Nc3c(C)cccc3Cl)s2)cc(N2CCN(CCO)CC2)n1 [dasatanib] (first compound 0.004 µM, partner dose 0.004 µM)
- cell count (WM115): 89.1%
- cell count (WM1716): 88.3%
- cell count (WM1745): 75.4%
- cell count (WM3526): 89%
- cell count (WM3619): 94.4%
- cell count (WM451Lu): 92.9%

SMILES: C[C@]12O[C@H](C[C@]1(O)CO)n1c3ccccc3c3c4c(c5c6ccccc6n2c5c31)CNC4=O [Lestaurtinib] + COc1ccc2c(c1)CCC1C2CCC2(C)C(NCCCCCCN3C(=O)C=CC3=O)CCC12 [U73122] (first compound 0.004 µM, partner dose 0.4 µM)
- cell count (WM115): 119%
- cell count (WM1716): 98%
- cell count (WM1745): 94.3%
- cell count (WM3526): 104%
- cell count (WM3619): 81.1%
- cell count (WM451Lu): 108%

SMILES: C[C@]12O[C@H](C[C@]1(O)CO)n1c3ccccc3c3c4c(c5c6ccccc6n2c5c31)CNC4=O [Lestaurtinib] + Cc1cc(Nc2cc(N3CCN(C)CC3)nc(/C=C/c3ccccc3)n2)n[nH]1 [ENMD2076] (first compound 0.004 µM, partner dose 0.04 µM)
- cell count (WM115): 101%
- cell count (WM1716): 110%
- cell count (WM1745): 99.7%
- cell count (WM3526): 83.9%
- cell count (WM3619): 99.8%
- cell count (WM451Lu): 109%

SMILES: Cn1cc(C2=C(c3cn(C4CCN(Cc5ccccn5)CC4)c4ccccc34)C(=O)NC2=O)c2ccccc21 [Enzastaurin] + O=S(=O)(c1ccccc1)N(CC(F)(F)F)c1ccc(C(O)(C(F)(F)F)C(F)(F)F)cc1 [T0901317] (first compound 0.8 µM, partner dose 1.4 µM)
- cell count (WM115): 105%
- cell count (WM1716): 94.5%
- cell count (WM1745): 84.3%
- cell count (WM3526): 103%
- cell count (WM3619): 89.1%
- cell count (WM451Lu): 98.4%

SMILES: C[C@]12O[C@H](C[C@]1(O)CO)n1c3ccccc3c3c4c(c5c6ccccc6n2c5c31)CNC4=O [Lestaurtinib] + CCCCCCCCc1ccc(CCC(N)(CO)CO)cc1 [fingolimod] (first compound 0.004 µM, partner dose 2 µM)
- cell count (WM115): 85.7%
- cell count (WM1716): 99.5%
- cell count (WM1745): 82.3%
- cell count (WM3526): 77.8%
- cell count (WM3619): 108%
- cell count (WM451Lu): 91.4%

SMILES: C[C@]12O[C@H](C[C@]1(O)CO)n1c3ccccc3c3c4c(c5c6ccccc6n2c5c31)CNC4=O [Lestaurtinib] + CCCCCCCCCCCC1=C(O)C(=O)C=C(O)C1=O [Embelin] (first compound 0.004 µM, partner dose 1.2 µM)
- cell count (WM115): 103%
- cell count (WM1716): 113%
- cell count (WM1745): 95.1%
- cell count (WM3526): 110%
- cell count (WM3619): 77.1%
- cell count (WM451Lu): 98.6%

SMILES: C[As](C)SC[C@H](NC(=O)CC[C@H](N)C(=O)O)C(=O)NCC(=O)O [Darinaparsin] + Cc1ccc(NC(=O)c2cccc(N(C)C)c2)cc1NC(=O)c1ccc(O)cc1 [ZM336372] (first compound 0.4 µM, partner dose 2 µM)
- cell count (WM115): 104%
- cell count (WM1716): 114%
- cell count (WM1745): 112%
- cell count (WM3526): 93.8%
- cell count (WM3619): 142%
- cell count (WM451Lu): 112%

SMILES: N.N.[Cl][Pt][Cl] [cisplatin] + CC(=O)c1c(C)c2cnc(Nc3ccc(N4CCNCC4)cn3)nc2n(C2CCCC2)c1=O [palbociclib] (first compound 1.6 µM, partner dose 0.04 µM)
- cell count (WM115): 95.2%
- cell count (WM1716): 88.1%
- cell count (WM1745): 103%
- cell count (WM3526): 84.3%
- cell count (WM3619): 87.5%
- cell count (WM451Lu): 83.4%

SMILES: Cn1cc(C2=C(c3cn(C4CCN(Cc5ccccn5)CC4)c4ccccc34)C(=O)NC2=O)c2ccccc21 [Enzastaurin] + CC(C)(C)c1cnc(CSc2cnc(NC(=O)C3CCNCC3)s2)o1 [SNS-032] (first compound 0.8 µM, partner dose 0.01 µM)
- cell count (WM115): 102%
- cell count (WM1716): 75.8%
- cell count (WM1745): 81%
- cell count (WM3526): 91.2%
- cell count (WM3619): 120%
- cell count (WM451Lu): 71%

SMILES: N.N.[Cl][Pt][Cl] [cisplatin] + O=C1NC(=O)/C(=C/c2ccc(-c3ccc(F)cc3O)o2)S1 [AS252424] (first compound 8 µM, partner dose 5 µM)
- cell count (501Mel): 74.9%
- cell count (A101D): 82.8%
- cell count (A2058): 95%
- cell count (A375): 107%
